Sequences with one replicate were seen in a single cluster, so their values are uncertain.
Test system: ATP
Assay: switch fluorescence ratio, 500 uM ATP over buffer (Cy3 cluster intensity, sum of 5 cycles each) (fold (ratio)); higher = stronger signal-on switching upon ATP binding; sequences stand for … in TCGTCGGCAGCGTCAGATGTGTATAAGAGACAGTTTTTTTTTTTTTTTTTTTTTTTTT…TC
Conditions: aptamer strand: ATP DNA aptamer (quencher-CACCTGGGGGAGTATTGCGGAGGAAGG + anchor), 100 nM annealed; ATP concentration: 500 uM; one replicate
Outline: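 Imaging in selection buffer was followed by imaging after 15 min with 500 uM ATP at 22 °C, for Cy3-labelled switching-strand clusters annealed to 100 nM quencher-labelled ATP aptamer on a modified Illumina MiSeq flow-cell. Five of these buffer/ATP cycles ran, separated by NaOH stripping and re-annealing. The fluorescence ratio per cluster is summed target-cycle over summed buffer-cycle Cy3 intensity, averaged per switch-domain sequence; clusters outside 100-1000 RFU were removed.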
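Also: ATP exposure 15 min at 22 °C before imaging.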

Q: CTCTCTTGGT was tested. Which switch fluorescence ratio did it give?
A: 1.05

Q: How did the switch fluorescence ratio turn out when CTCTGAATGC was run?
A: 3.26

Q: Which switch fluorescence ratio does the source give for CTCTGAGTG here?
A: 1.02

Q: Which switch fluorescence ratio does the source give for CTCTGCAGAG here?
A: 1.17

Q: CTCTGGTCAT was tested. Which switch fluorescence ratio did it give?
A: 1.08

Q: CTCTGTCAAA was tested. Which switch fluorescence ratio did it give?
A: 1.88

Q: Which switch fluorescence ratio does the source give for CTCTGTCAAC here?
A: 3.07

Q: How did the switch fluorescence ratio turn out when CTCTGTCTTA was run?
A: 1.01

Q: Which switch fluorescence ratio does the source give for CTCTGTGATC here?
A: 3.63

Q: Which switch fluorescence ratio does the source give for CTCTGTGGGT here?
A: 0.966

Q: How did the switch fluorescence ratio turn out when CTCTTGAGGC was run?
A: 0.977

Q: How did the switch fluorescence ratio turn out when CTCTTGCAGG was run?
A: 1.17

Q: With CTCTTGGATG as the sequence, how does the switch fluorescence ratio read?
A: 1.02

Q: Which switch fluorescence ratio does the source give for CTCTTGTGCG here?
A: 0.988

Q: CTCTTTAAGG was tested. Which switch fluorescence ratio did it give?
A: 1.04

Q: With CTCTTTTTTC as the sequence, how does the switch fluorescence ratio read?
A: 0.95

Q: With CTGAAAAAAA as the sequence, how does the switch fluorescence ratio read?
A: 0.956

Q: Which switch fluorescence ratio does the source give for CTGAAAGGCA here?
A: 1.03

Q: CTGAACCCAG was tested. Which switch fluorescence ratio did it give?
A: 1.07

Q: How did the switch fluorescence ratio turn out when CTGAACTTC was run?
A: 1.1

Q: With CTGAAGATCC as the sequence, how does the switch fluorescence ratio read?
A: 1.6

Q: For CTGAATAAG, which switch fluorescence ratio is on record?
A: 1

Q: Which switch fluorescence ratio does the source give for CTGAATCAT here?
A: 1.01

Q: How did the switch fluorescence ratio turn out when CTGAATGGTA was run?
A: 1.01

Q: With CTGAATGTA as the sequence, how does the switch fluorescence ratio read?
A: 0.962

Q: CTGACAAGCA was tested. Which switch fluorescence ratio did it give?
A: 2.03

Q: With CTGACACGTA as the sequence, how does the switch fluorescence ratio read?
A: 1.23

Q: How did the switch fluorescence ratio turn out when CTGACAGTA was run?
A: 1.07

Q: CTGACATGAC was tested. Which switch fluorescence ratio did it give?
A: 1.47

Q: Which switch fluorescence ratio does the source give for CTGACTAGTG here?
A: 0.999

Q: Which switch fluorescence ratio does the source give for CTGAGCGGAT here?
A: 1.04

Q: How did the switch fluorescence ratio turn out when CTGAGTTTAA was run?
A: 1.01

Q: How did the switch fluorescence ratio turn out when CTGATAGGTA was run?
A: 0.961

Q: Which switch fluorescence ratio does the source give for CTGATCAGTC here?
A: 0.988

Q: How did the switch fluorescence ratio turn out when CTGATCCGAG was run?
A: 1.11

Q: How did the switch fluorescence ratio turn out when CTGATCGTGA was run?
A: 1.13

Q: Which switch fluorescence ratio does the source give for CTGATGCTGG here?
A: 1.01

Q: With CTGATTAGGC as the sequence, how does the switch fluorescence ratio read?
A: 1.06

Q: For CTGCAACGCT, which switch fluorescence ratio is on record?
A: 1.12

Q: CTGCCACCAT was tested. Which switch fluorescence ratio did it give?
A: 1.01

Q: With CTGCCACGTA as the sequence, how does the switch fluorescence ratio read?
A: 1.13

Q: For CTGCCAGGCA, which switch fluorescence ratio is on record?
A: 1.04

Q: With CTGCCATATA as the sequence, how does the switch fluorescence ratio read?
A: 1.12

Q: For CTGCCGACTT, which switch fluorescence ratio is on record?
A: 1.01

Q: CTGCCTAAGT was tested. Which switch fluorescence ratio did it give?
A: 1.05

Q: How did the switch fluorescence ratio turn out when CTGCGCCCGG was run?
A: 1.04

Q: With CTGCTAGATC as the sequence, how does the switch fluorescence ratio read?
A: 1.01

Q: How did the switch fluorescence ratio turn out when CTGCTATCC was run?
A: 1.47

Q: Which switch fluorescence ratio does the source give for CTGCTCGCAC here?
A: 4.19

Q: For CTGCTTAAA, which switch fluorescence ratio is on record?
A: 0.984

Q: How did the switch fluorescence ratio turn out when CTGCTTAGGT was run?
A: 1.01

Q: With CTGCTTGGGC as the sequence, how does the switch fluorescence ratio read?
A: 0.978

Q: For CTGCTTTTTG, which switch fluorescence ratio is on record?
A: 0.993

Q: For CTGGAAGCGT, which switch fluorescence ratio is on record?
A: 1.04

Q: For CTGGACTTCA, which switch fluorescence ratio is on record?
A: 1.03

Q: Which switch fluorescence ratio does the source give for CTGGAGAAAT here?
A: 3.66

Q: For CTGGAGGGCC, which switch fluorescence ratio is on record?
A: 1.02

Q: For CTGGAGTGTG, which switch fluorescence ratio is on record?
A: 0.966

Q: For CTGGAGTTGT, which switch fluorescence ratio is on record?
A: 1.08

Q: How did the switch fluorescence ratio turn out when CTGGATCGAA was run?
A: 1.01

Q: CTGGATGGTA was tested. Which switch fluorescence ratio did it give?
A: 0.976

Q: With CTGGATTTTG as the sequence, how does the switch fluorescence ratio read?
A: 0.979

Q: How did the switch fluorescence ratio turn out when CTGGCAAATG was run?
A: 1.06

Q: Which switch fluorescence ratio does the source give for CTGGCAGCGC here?
A: 1.02

Q: Which switch fluorescence ratio does the source give for CTGGCGCGTA here?
A: 1.03

Q: For CTGGCGCTGA, which switch fluorescence ratio is on record?
A: 1.05

Q: Which switch fluorescence ratio does the source give for CTGGCGTGCA here?
A: 1.58

Q: CTGGCGTGTC was tested. Which switch fluorescence ratio did it give?
A: 1.01

Q: Which switch fluorescence ratio does the source give for CTGGGAGTGC here?
A: 0.964

Q: With CTGGGCAA as the sequence, how does the switch fluorescence ratio read?
A: 1.09

Q: Which switch fluorescence ratio does the source give for CTGGGCACTC here?
A: 1.15

Q: CTGGGCATTC was tested. Which switch fluorescence ratio did it give?
A: 2.15

Q: How did the switch fluorescence ratio turn out when CTGGGCCTCG was run?
A: 1.01

Q: CTGGGGAAAT was tested. Which switch fluorescence ratio did it give?
A: 1.01

Q: CTGGGGCCAG was tested. Which switch fluorescence ratio did it give?
A: 1.01

Q: Which switch fluorescence ratio does the source give for CTGGGGTCTC here?
A: 0.975
